In publication PMC4250081 one finds binding data, which are given here for four molecules.

The chains behind the UniProt entries cited, without tags or fusion partners.
UniProt P24534: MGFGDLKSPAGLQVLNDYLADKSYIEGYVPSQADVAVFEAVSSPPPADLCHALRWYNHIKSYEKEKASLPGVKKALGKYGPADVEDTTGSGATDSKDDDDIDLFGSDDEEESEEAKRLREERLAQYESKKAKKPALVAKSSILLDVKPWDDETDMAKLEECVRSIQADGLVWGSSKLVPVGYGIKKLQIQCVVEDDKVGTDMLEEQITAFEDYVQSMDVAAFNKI
UniProt Q05639: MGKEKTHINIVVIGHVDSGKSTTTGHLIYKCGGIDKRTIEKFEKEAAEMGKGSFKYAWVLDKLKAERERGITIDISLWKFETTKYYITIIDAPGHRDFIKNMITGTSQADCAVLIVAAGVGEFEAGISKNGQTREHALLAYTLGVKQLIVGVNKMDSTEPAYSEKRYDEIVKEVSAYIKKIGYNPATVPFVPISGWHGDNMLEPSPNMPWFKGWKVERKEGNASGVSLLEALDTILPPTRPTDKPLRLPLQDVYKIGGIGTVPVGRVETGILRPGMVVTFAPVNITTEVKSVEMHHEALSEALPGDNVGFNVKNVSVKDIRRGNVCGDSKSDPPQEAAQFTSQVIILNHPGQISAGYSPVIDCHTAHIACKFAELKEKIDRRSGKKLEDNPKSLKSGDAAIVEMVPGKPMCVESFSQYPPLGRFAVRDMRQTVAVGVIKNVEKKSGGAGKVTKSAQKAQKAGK
UniProt P68104: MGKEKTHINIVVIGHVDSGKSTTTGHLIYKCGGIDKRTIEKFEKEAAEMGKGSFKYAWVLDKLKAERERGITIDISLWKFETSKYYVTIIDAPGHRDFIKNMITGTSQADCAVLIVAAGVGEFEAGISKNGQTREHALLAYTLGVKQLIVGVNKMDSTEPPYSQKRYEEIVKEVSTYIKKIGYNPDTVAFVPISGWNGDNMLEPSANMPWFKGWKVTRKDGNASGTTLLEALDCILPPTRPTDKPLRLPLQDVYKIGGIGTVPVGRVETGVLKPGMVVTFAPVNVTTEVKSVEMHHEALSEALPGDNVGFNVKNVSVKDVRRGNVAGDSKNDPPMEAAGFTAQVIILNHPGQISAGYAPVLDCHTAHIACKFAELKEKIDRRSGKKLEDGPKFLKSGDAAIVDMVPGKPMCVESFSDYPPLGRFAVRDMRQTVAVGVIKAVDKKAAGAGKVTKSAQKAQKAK

Substitutions are numbered along the chain they refer to. Results are given in words; binding and its absence hold for the method and conditions named. Binding seen in cells or lysates may run through a third protein. Some entries that bind do so weakly or less than the wild type.

In experiment [1] the target is T1, eEF1Bα (NIH-3T3) (mouse (endogenous in NIH-3T3)) (UniProt O70251).
T1 sequence: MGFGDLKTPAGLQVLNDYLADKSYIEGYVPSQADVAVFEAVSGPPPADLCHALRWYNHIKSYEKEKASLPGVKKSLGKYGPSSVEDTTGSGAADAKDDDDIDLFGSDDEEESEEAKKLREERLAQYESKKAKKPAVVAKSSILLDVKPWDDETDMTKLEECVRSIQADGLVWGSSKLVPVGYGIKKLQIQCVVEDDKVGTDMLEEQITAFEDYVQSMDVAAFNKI
The experiment in a line: proximity ligation; Duolink in situ PLA on NIH-3T3 cells stably expressing V5-tagged eEF1A1 or V5-tagged eEF1A2; antibody to an eEF1B subunit paired with V5 antibody or TK1 antibody; incubations at 37°C in a humidity chamber.

Experiment [2] addresses T2, eEF1Bδ (NIH-3T3) (mouse (endogenous in NIH-3T3)) (UniProt P57776).
T2 sequence: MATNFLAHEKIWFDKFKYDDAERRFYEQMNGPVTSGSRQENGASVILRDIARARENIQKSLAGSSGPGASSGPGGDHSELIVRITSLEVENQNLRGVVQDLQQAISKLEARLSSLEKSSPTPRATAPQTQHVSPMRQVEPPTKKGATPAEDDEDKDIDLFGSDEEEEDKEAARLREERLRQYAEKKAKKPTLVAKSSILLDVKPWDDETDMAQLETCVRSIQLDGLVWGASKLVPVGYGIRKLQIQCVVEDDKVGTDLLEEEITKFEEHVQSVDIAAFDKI
Described as above.

The target in experiment [3] is T3, TK1 (human (endogenous in HeLa)) (UniProt P04183).
T3 sequence: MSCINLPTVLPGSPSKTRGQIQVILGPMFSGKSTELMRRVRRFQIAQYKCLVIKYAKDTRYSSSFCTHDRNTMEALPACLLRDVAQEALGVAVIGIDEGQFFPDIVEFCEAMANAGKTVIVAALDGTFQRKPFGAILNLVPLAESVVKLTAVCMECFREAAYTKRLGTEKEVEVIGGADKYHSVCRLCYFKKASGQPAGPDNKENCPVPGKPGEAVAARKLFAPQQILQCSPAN
As to the kind of experiment: proximity ligation; Duolink in situ PLA on HeLa cells, endogenous proteins; eEF1A2 antibody paired with an antibody to an eEF1B subunit or to TK1; incubations at 37°C in a humidity chamber.

Experiment [4] addresses T4, eEF1Bα (human (endogenous in HeLa)) (UniProt P24534).
T4 sequence: T1 sequence with T8S, G43S, S75A, S82A, S83D, A93T, A95S, K117R, V136L, T156A
The description is as above.

The target of experiment [5] is eEF1Bδ (human (endogenous in HeLa)) (UniProt P29692). The experiment is described as above.
Experiment [6] has as its target T5, TK1 (NIH-3T3) (mouse (endogenous in NIH-3T3)) (UniProt P04184).
T5 sequence: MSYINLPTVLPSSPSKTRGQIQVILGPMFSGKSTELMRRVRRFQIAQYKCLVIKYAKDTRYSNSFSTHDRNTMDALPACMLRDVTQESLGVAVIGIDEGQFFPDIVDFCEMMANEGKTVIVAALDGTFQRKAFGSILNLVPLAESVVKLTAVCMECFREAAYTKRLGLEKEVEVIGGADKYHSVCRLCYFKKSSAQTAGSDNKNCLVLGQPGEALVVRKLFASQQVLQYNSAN
As to the kind of experiment: proximity ligation; Duolink in situ PLA on NIH-3T3 cells stably expressing V5-tagged eEF1A1 or V5-tagged eEF1A2; antibody to an eEF1B subunit paired with V5 antibody or TK1 antibody; incubations at 37°C in a humidity chamber.

In the case of “V5-tagged eEF1A2 (from UniProt Q05639 1-463)”, the binding result in experiment [1] and in experiment [2] was “binds” in each case.
As for eEF1A2 (from UniProt Q05639 1-463), the binding entry in experiment [3] is given as “no binding”; in experiment [4], “binds”; in experiment [5], “binds”.
As to “V5-tagged eEF1A1 (from UniProt P68104 1-462)”, the binding entry in experiment [1] and in experiment [2] was “binds” each time.

B1: eEF1Bδ (NIH-3T3) (protein, UniProt P57776 1-281)
chain: T2 sequence
As to B1, the binding result in experiment [6] was “no binding”.
